Laboratory results from PubChem BioAssay AID938 (National Center for Advancing Translational Sciences (NCATS), 2007).
In all, about 73,000 compounds went through this assay and about 1,800 (2.5%) were called active. The inconclusive results got no clear call from the source; some entries with a clear call stand among them for comparison. The call rests on the fitted dose curve; in most records, active means well fitted activation curve with a large enough effect; inconclusive means small, poorly fitted or top-dose-only effect; inactive means no such curve, though single readings can be large or run the other way. Potencies of inconclusive entries are left out as doubtful fits.

Assay: qHTS Assay for Agonists of the Thyroid Stimulating Hormone Receptor: Activators of Intracellular cAMP Concentrations in Parental HEK 293; further: nearly all actives have a fitted effect of over 55% in size
Conditions: parental HEK293 CNG cAMP sensor, membrane potential fluorescence; series mostly up to 57.1 µM
How it was run: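 Parental HEK 293 cells stably expressing a modified CNG channel (no TSHR) report cAMP rise as membrane depolarization. Membrane potential dye with 100 uM RO 20-1724 was loaded for 60 min at room temperature, then compound added for 30 min; fluorescence read at 590 nm.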
Potency means the concentration at half of the fitted maximal effect; tags describe the fitted curve by direction and shape.

Row | Compound | Potency
1 | O=C(N/C(=N\O)c1ccccc1)Nc1ccc(Cl)cc1 | inconclusive [activator, full curve, poor fit]
2 | CCCc1nc(SCC(=O)N2CCN(c3ccccc3)CC2)c2c(=O)n(C)c(=O)n(C)c2n1 | inactive
3 | CC(C)(C)c1ccc(OCC(=O)NCc2ccco2)c(Br)c1 | inconclusive [activator, partial curve]
4 | Cc1ccc(C)c(N2CCN(C(=O)c3ccc(CS(=O)(=O)c4ccccc4C)o3)CC2)c1 | inconclusive [activator, partial curve]
5 | O=C(c1cnccn1)N1CCC2(CCCN(c3ccc(-c4ccccc4)cc3)C2)CC1 | inactive
6 | Cc1csc2nc(CSc3nc4ccccc4o3)c(Br)n12 | active: 25.1 µM
7 | COC(=O)c1sccc1NC(=O)c1ccncc1 | inactive
8 | CC1CCCN(Cc2nc3c(c(=O)n(C)c(=O)n3C)n2Cc2c(F)cccc2Cl)C1 (configuration not stated) | inactive
9 | O=C(C1CCCN(S(=O)(=O)c2ccc(Br)s2)C1)N1CCCCCC1 (configuration not stated) | inconclusive [activator, partial curve]
10 | Cc1cc(N2CCCCC2)nc(SCc2ccc(C#N)cc2)n1 | active: 31.6 µM
11 | COC(=O)c1ccc(C(NC(=O)OCc2ccccc2)/C(C)=C/[C@@H](C)C(=O)NCc2cccnc2)cc1 (some centres not stated) | inconclusive [activator, single point]
12 | Cc1ccc(C)c2[nH]c(=O)c(CN(CCN3CCCC3)C(=O)Nc3ccc(F)cc3)cc12 | inconclusive [activator, single point]
13 | O=C(Nc1ccccc1-c1ccccc1)c1cnccn1 | inconclusive [activator, partial curve]
14 | COC(=O)c1nnn(-c2nonc2N)c1CSc1ccccn1 | active: 31.6 µM
15 | Cc1cc(C(=O)CCC(=O)N2CCN(S(=O)(=O)c3cccs3)CC2)c(C)s1 | inconclusive [activator, single point]
16 | O=C(CN(CCc1ccccc1)C(=O)Cn1nnc(-c2cccs2)n1)NCc1ccco1 | active: 25.1 µM
17 | CCc1cccc(C)c1NC(=O)CSc1nnc(-c2cc3cc(Br)ccc3o2)n1CC | inconclusive [activator, partial curve]
18 | CC(C)COc1ccc(-c2nnc(-c3ccco3)o2)cc1 | inconclusive [activator, partial curve]
19 | C/C(Cl)=C/Cn1c(SC(C)C)nc2c1c(=O)[nH]c(=O)n2C | inconclusive [activator, single point]
20 | Oc1c(C(c2ccccc2)N2CCN(Cc3ccccc3)CC2)sc2ncnn12 (configuration not stated) | active: 31.6 µM
21 | CCCNC(=O)CN(C)C(=O)c1n[nH]c2ccccc12 | inconclusive [activator, single point]
22 | CC1(C)Cc2cccc(OCC(=O)Nc3ccccc3N3CCOCC3)c2O1 | active: 20 µM
23 | COc1ccc(Oc2ncc3nc(-c4cccs4)c(=O)n(Cc4cccs4)c3n2)cc1 | inconclusive [activator, partial curve]
24 | O=C1CC(c2ccco2)Cc2nc(Nc3ccc(F)cc3)ncc21 (configuration not stated) | inconclusive [activator, single point]

Row | Compound | Potency
25 | COc1ccc(NC(=O)N2CCCC3(CCN(C(=O)c4cnccn4)CC3)C2)cc1 | inactive
26 | CCOC(=O)C1CCN(C(=O)CN(c2ccc(Cl)c(C(F)(F)F)c2)S(C)(=O)=O)CC1 | inconclusive [activator, partial curve]
27 | CCC1CCCCN1S(=O)(=O)c1ccc2c(c1)CCN2C(=O)C1CCC1 (configuration not stated) | inconclusive [activator, partial curve]
28 | O=C(Cn1nnc(-c2ccccc2)n1)NCc1ccc2c(c1)OCO2 | inactive
29 | Nc1nonc1-c1nc2ccccc2[nH]1 | inactive
30 | O=C(NCCN1CCOCC1)c1ccc(-n2c(=O)c(=O)[nH]c3ccccc32)cc1 | inactive
31 | COCCn1c(=O)cnc2cnc(N3CCN(C)CC3)nc21 | inactive
32 | COc1ccccc1CN1CCCC2(CCN(C(=O)c3cccc(F)c3)CC2)C1 | inconclusive [activator, single point]
33 | COc1ccc(CCn2c(-c3ccco3)nc3ccccc3c2=O)cc1OC | inconclusive [activator, single point]
34 | C[C@@H](Cc1ccccc1)Nc1ncnc2c1ncn2[C@@H]1O[C@@H](CO)[C@H](O)[C@@H]1O | active: 25.1 µM
35 | Cc1onc(-c2ccccc2)c1C(=O)NCc1ccco1 | inconclusive [activator, single point]
36 | COc1ccc(-n2nc(C(=O)NCc3ccco3)c3c4ccccc4n(C)c3c2=O)cc1Cl | inconclusive [activator, full curve, poor fit]
37 | C/C=C/Cn1c(N(C)Cc2ccccc2)nc2c1c(=O)[nH]c(=O)n2C | inactive
38 | COC(=O)c1ccccc1NC(=O)c1cc(OC)cc(OC)c1 | active: 25.1 µM
39 | Cc1cccc(CNc2ncnc3ccc(-c4ccccc4C#N)cc23)c1 | active: 25.1 µM
40 | CCN(CC)CCCCn1c(-c2ccccc2)nc2c(N(CCOC)CCOC)nc(C)nc21 | inconclusive [activator, single point]
41 | CN(C)c1cccc(-c2nnc(SCCCC#N)o2)c1 | inactive
42 | O=C(Nc1cccc(C(F)(F)F)c1)c1ccco1 | inconclusive [activator, partial curve]
43 | COc1ccccc1NC(=O)CSc1nnc(COc2ccc(Cl)cc2)n1Cc1ccco1 | inconclusive [activator, partial curve]
44 | CCOC(=O)c1c(NC(=O)CN2CCCCC2)sc2c1CCCC2O (configuration not stated) | inconclusive [activator, full curve]
45 | O=C(CN1CCN(c2ccccn2)CC1)Nc1ccc(Cl)c(C(F)(F)F)c1 | inactive
46 | O=C(Cn1c(-c2cncs2)nc2ccccc21)NCCc1ccccc1 | inconclusive [activator, partial curve]
47 | CCOc1ccc(C2c3c(oc4cc(C)c(C)cc4c3=O)C(=O)N2CCCN(C)C)cc1OC (configuration not stated) | inconclusive [activator, single point]
